Reference: the supplement of paper PMC11417369
This is one part of the list.

system: PF3D7_0420300 AP2 domain 1 (GST-tagged); experiment: gcPBM binding intensity (ln(normalized median fluorescence intensity)); higher = stronger DNA binding
Method in brief: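 GST-fused DNA-binding domains of P. falciparum, expressed in E. coli, were applied at about 25 μg on average for 1 h to an Agilent 4 × 180k array of primer-extended double-stranded 36-bp intergenic genomic probes and negative controls. Binding intensity is the highest Masliner-normalised natural-log median intensity across replicate spots of either probe orientation, measured with Alexa488 anti-GST antibody and a 488 nm scan.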

| Sequence | gcPBM binding intensity (ln) |
| --- | --- |
| TATATATGTATCAAGTGTACAGTTTTAAAAAAAAAA [XGTACX_site6011] | 9.07 |
| ACACACAATACAAAAGTGCATATAATAATTAATCAT | 9.63 |
| AAAAAAAAAAGACACACACACAAAATAAACAAACAA [CACACA_site7308] | 10.3 |
| TATTTCATTAATGTCACTTTGAAAGAAATGAAAAAA [CACACA_negctrl_site1803] | 8.82 |
| TGTTTTTAAAAAAAAAAAAAATCACACCGGCAGGTA [CACACA_negctrl_site1437] | 8.99 |
| TGCGTATATATATACACACACATATATATATTTTAA [CACACA_site1952] | 9.52 |
| TATTGACATATATTAGTGCAATAATGAAATCAAGTA | 9.22 |
| CATATTATTCTTTTCACACACGCGTTAATAATAATC [CACACA_site3931] | 9.61 |
| TTTATATTAAAATATTGTACGGACATTATTTTGTAA [XGTACX_site8128] | 8.89 |
| CATAATATGACATACACACACAAAAAAAAAAAAATA [CACACA_site1285] | 9.91 |
| AACCGGGCCTAAGATGTAATGCCTTAGCCTATAAAA [CACACA_negctrl_site479] | 8.92 |
| ATAAATATTTACAAAAGTACACATAACTTTAGATAT [XGTACX_site1685] | 9.33 |
| TAAACATAATATTTAACACACATGAAGATGTATATT [CACACA_site1036] | 9.41 |
| CACCATGATACATACACACAGACATATACGCATTCA [CACACA_site1008] | 9.58 |
| GTTTTGGCTAACTATTCACACATTAAAATATTACCA [CACACA_site5016] | 9.34 |
| ACAATCCACAGGGGCGCACACATATAAGCAGTATAT [CACACA_site3817] | 9.62 |
| AAAAAATTAATAAAAACACACAAAAAAAATAAACAA [CACACA_site1907] | 9.69 |
| TTTGTTGTTTGGAGATGTACATATTTTACACTTTTT [XGTACX_site5965] | 9.55 |
| ATTTCACAGAGACACACACACAATATATTTCCTTTT [CACACA_site7773] | 9.94 |
| TCGTGCATAAATCATACACACACACCGATATATATA [CACACA_site8767] | 9.98 |
| TTTGTATCCTTTTTGACATGCAACCATTCGGGTACA [TGCATGCA_site506] | 9.02 |
| AAAAAAAAAAAAAACGCACACATTTTTACAATTCTA [CACACA_site3271] | 9.35 |
| TCACAATTTTTTAGTACACACATATAAATATATAAA [CACACA_site1537] | 9.24 |

| Sequence | gcPBM binding intensity (ln) |
| --- | --- |
| TTTCATTAATCTAATAGTACAGAAAATTGAGAAAAA [XGTACX_site8395] | 8.94 |
| TCTATTAATTAATATACACACATTATGTATATATAT [CACACA_site2541] | 9.46 |
| GTATACAAACATATAAATATAAATGTATTATTTGTT [CACACA_negctrl_site756] | 9.2 |
| CACGAACACAAACACAAACACACATCATATATATAT [CACACA_site1322] | 9.83 |
| AAAGATAAAAAAAGTACACACACACCGATATATATA [CACACA_site9006] | 10.2 |
| ACTTTAACCTGAACGGTGCATAAAATTTTGGCATTA | 9.1 |
| AATATATATAAAAAGGGAAAAATATATAAATAGATA [XGTACX_negctrl_site52] | 9.51 |
| AAAAAATTGACTAATGCACACAATTACAGATATATA [CACACA_site5010] | 9.51 |
| CATATTTTCAAAATTAGTACATAAAAAAAAAAATAT [XGTACX_site3101] | 9.37 |
| TATAATCATATATACACACACATATATATATATATA [CACACA_site2168] | 9.59 |
| TCTTCCGCTTTATGGAGTACTATGGTAGCCTTTCCT [XGTACX_site2958] | 9.14 |
| GACCTACAAAAAGGCACACATATACGCATACATACA [CACACA_site2179] | 9.38 |
| ATATGCATAAAAAGAGGTACACATAAAATATATATA [XGTACX_site5864] | 9.58 |
| TATACACATATATAAAGTACATATATGTGTAAAAAA [XGTACX_site8582] | 9.4 |
| CAAAAAATGAAACACACACACACACCCATAAATAAA [CACACA_site1231] | 10.1 |
| TCATATATAAAAAGGGTGCTTTTAAAAGAATGGATT | 9.26 |
| CAGATATTTGTTCATATACACACTTTTGATAAAATA [CACACA_site1219] | 9.34 |
| AATATTTTTTGTTTTACACACATATATAGATATATA [CACACA_site7662] | 9.67 |
| TTTTTTTTTGTATTTTCACACATTTTTTTTTTTTTT [CACACA_site5407] | 9.48 |
| TTATTTAAACAAATCACACACAAATATATATACATA [CACACA_site2019] | 9.71 |
| AAAAATACAATTTTCTTGCACTTTGTTGCATTGTAA | 9.12 |
| AACATATACACGAACACACACACATATAAATAAATA [CACACA_site6380] | 9.96 |
| CAAAATATAAAAACATGTACATAAATATTAACGAAT [XGTACX_site2380] | 9.7 |

| Sequence | gcPBM binding intensity (ln) |
| --- | --- |
| TCATCCACATATTGTAGTACAAGATAATTGTTTATT [XGTACX_site1634] | 9.25 |
| ATATGTTTATTAAATGCATGTCAAGACTTAAGATAT [TGCATGCA_site329] | 9.24 |
| AATTTTAATTATATCACACATAATATATACCAAAAA [CACACA_site6011] | 9.31 |
| AAAAAAAAAAGACACACACACACACGGAGATATATA [CACACA_site6216] | 10.3 |
| TTTAATACTTTTTTCTGTACACACTTGATTTACTAT [XGTACX_site5925] | 9.68 |
| TACATATTTTTATATACACACAATAATTACTATAAA [CACACA_site6879] | 9.4 |
| AAAATACATAAACGTTCACACATTGAAGATCACAAG [CACACA_site5347] | 9.55 |
| TAGGTACATAAATTGGTGCAAAGTGTACATATATAT | 9.53 |
| TTATATTTTCTCCGCGTGCACATATGTATACTATAC | 9.55 |
| TAGGGTAGTTATAATTGTACTTTTCTCCAAAAAAAA [XGTACX_site7321] | 8.95 |
| TTTTTGTTTTTTTGTTTATCGTTCGTGACTACATGA [TGCATGCA_negctrl_site124] | 9.3 |
| GAAATCTAAATAGAAACACACATATATATATATATA [CACACA_site3863] | 9.1 |
| AAAAATAAAAAATATAAAAATATAAAAATATAAAAA [XGTACX_negctrl_site51] | 9.21 |
| TTTATTATTTTAACGTGTACAAGGTATATAATATTC [XGTACX_site5241] | 9.18 |
| TAGGTAAATGCAAATTGGTTTAAATCAAAATATAAA [XGTACX_negctrl_site250] | 9.17 |
| GTATCAAAAGAATACACACACACATACAGATATATA [CACACA_site5975] | 10.1 |
| TGATATTATATATATACACACATGTATGTATTTATA [CACACA_site4874] | 9.43 |
| ATAAACAAACATAAATCTGATTTTAATTTTTTTAAG [CACACA_negctrl_site313] | 9.11 |
| AAATATACAATATTCACACAAAAAAATACATTACAA [CACACA_site5004] | 9.5 |
| ATATATTTATATTGTACACACATTTATGCATATATA [CACACA_site7502] | 9.64 |
| TTTCTTACAAAAGCTAGAGTTTTTTTTTTTTTTTTT [XGTACX_negctrl_site341] | 8.75 |
| TGTTTTTATAAAATAAATAAATATATATATATATAT [CACACA_negctrl_site502] | 8.86 |
| TTAGTCCATATTTTTGCACACCATTTTTTTTTTTTT [CACACA_site3927] | 9.67 |

| Sequence | gcPBM binding intensity (ln) |
| --- | --- |
| AGAATAAATATGCACACATGCATATATTTTTACACT [TGCATGCA_site893] | 9.43 |
| ATCCTTAATATGAACACACAAATATATTGCACATAT [CACACA_site6230] | 9.52 |
| TCTTTTTCATCTTTCAACAAAAAATAATATATGTGT [CACACA_negctrl_site866] | 9.24 |
| TAAATTTGTGTTATTAAAAAAATGGTTTAAAAATGT [XGTACX_negctrl_site352] | 9.14 |
| CTCTAATTAATATTTGTACACACATATTTAACCTAC [CACACA_site9043] | 9.63 |
| TAACTTTATTTTCCTGTACACACATTTGACATATTA [CACACA_site9116] | 9.8 |
| TCAAATTACGTAAGAACATGCGATATAAGAAATACG [TGCATGCA_site691] | 9.28 |
| TATATATTAATCAAAGTGCAATAATAAAATAAAAGT [GTGCAC_site9490] | 9.71 |
| TTTATACAAAAGAACAGTACAATAAAGGATTTATGA [XGTACX_site811] | 9.2 |
| TAAATAAAATACAAATGTACATAAATAATAAATATA [XGTACX_site1813] | 9.51 |
| ATATAAAAAATATAAGGTACACATATATGTAGATAT [XGTACX_site6792] | 9.6 |
| AATTATTTTAAATATTGTACTATTACAGAATGGTGT [XGTACX_site5693] | 9.19 |
| GGTTAAAAAAAGCATACACACTATCCTCTTTGCTCT [CACACA_site7246] | 9.53 |
| CTTTTTTATTTTTCAACACACATAATAAATTTCTAT [CACACA_site1037] | 9.4 |
| GAACCTTTAAAATACACACCCAAATCCTTTGAAATA [CACACA_site3630] | 9.3 |
| ATATTTTACAAATGCACACATAATTTTTTTTTTTTT [CACACA_site2763] | 9.3 |
| TTTTTTTTTATATATACACACAATAAATAAATATAA [CACACA_site2954] | 9.07 |
| TACATAAATACATACATACACACATATATATATATA [CACACA_site2105] | 9.56 |
| ATATATATATTGAAAAGTACATATATATATATATTA [XGTACX_site1560] | 9.21 |
| TGGATAATCAAAAATTGTACAAGTGTTGTTATTGGT [XGTACX_site8010] | 9.44 |
| ACCGGTGGAACGTTTTGTACATATATAATAATATAT [XGTACX_site2143] | 9.36 |
